Laboratory results reported in patent US20240384323A1, “METHOD FOR DETERMINING PROTEASE ACTIVITY IN A BIOLOGICAL SAMPLE” (CytomX Therapeutics, Inc., priority 2021, published 2024).

Assay: QZ assay in plasma samples (capillary electrophoresis immunoassay)
Format: in vitro ADME, human
Settings: 48 hours at 37° C.
Method: Oregon Green-labeled QZ probe in phosphate-buffered saline (PBS) pH 7.2 were added to an equal volume of plasma from healthy donors (n=5), or patients with lung cancer (n=5) or gastric cancer (n=5) (ProteoGenex), to give a final concentration of 714 μg/mL in a total volume of 10 μL. The QZ probe and plasma mixtures were incubated for 48 hours at 37° C. in a humidified chamber, then diluted 1:50 in PBS and analyzed by a capillary electrophoresis immunoassay (CEI). Samples were separated for 33 minutes to resolve component cleavage products and intact QZ probe components (i.e., including intact LC bipartite polypeptide), then incubated for 1 hour with goat polyclonal antibodies against Oregon Green Dye (1/40; A11095 ThermoFisher). Target proteins were immunoprobed using a 30-minute incubation with a horseradish peroxidase-conjugated secondary antibody (1/40; 705-035-147, Jackson ImmunoResearch) and chemiluminescent substrate (PS-CS0; ProteinSimple). Peaks with a signal-to-noise ratio of ≥5 were considered positive. This signal-to-noise ratio was calculated by the Simple Western Compass software (ProteinSimple).
The QZ assay of the present invention can be used to detect protease activity in liquid as well as in solid biological samples. Here, an example is presented of the assessment of a QZ probe comprising an activatable anti-PD-1 antibody therapeutic (HC, SEQ ID NO: 15; LC, SEQ ID NO: 16) was used to assess protease activity in the plasma of heathy donors and patients with cancers. […] The lower limit of detection of cleaved LC was determined to be ≥1 μg/mL.

Measured: Probe Cleavage

B1: activatable anti-PD-1 antibody therapeutic: QZ probe comprising an activatable anti-PD-1 antibody (HC, SEQ ID NO: 15; LC, SEQ ID NO: 16), Oregon Green-labeled (antibody)
heavy: EVQLVESGGGLVQPGGSLRLSCAASGFTFSGYAMSWVRQAPGKGLEWVAYISNSGGNAHYADSVKGRFTISRDNSKNTLYLQMNSLRAEDTAVYYCTREDYGTSPFVYWGQGTLVTVSSASTKGPSVFPLAPCSRSTSESTAALGCLVKDYFPEPVTVSWNSGALTSGVHTFPAVLQSSGLYSLSSVVTVPSSSLGTKTYTCNVDHKPSNTKVDKRV[human IgG4 Fc with S228P (EU numbers) not shown]
light: QGQSGQGTSYCSIEHYPCNTHHGGGSSGGSISSGLLSGRSDNPGGGSDIQLTQSPSSLSASVGDRVTITCRASESVDAYGISFMNWFQQKPGKAPKLLIYAASNQGSGVPSRFSGSGSGTDFTLTISSMQPEDFATYYCQQSKDVPWTFGQGTKLEIKRTVAAPSVFIFPPSDEQLKSGTASVVCLLNNFYPREAKVQWKVDNALQSGNSQESVTEQDSKDSTYSLSSTLTLSKADYEKHKVYACEVTHQGLSSPVTKSFNRGEC
modifications: Oregon Green label
No cleavage: Plasma from Gastric Cancer Patients | Plasma from Healthy Human Donors | Plasma from Lung Cancer Patients
